# Assay results taken from PubChem BioAssay AID1948 (National Center for Advancing Translational Sciences (NCATS), 2009).
# Where “and” joins values, the source holds several entries; their conditions need not be identical. Equal entries are not always repeated. Hit rate of the full screen: of about 110,000 compounds, about 20 (0.02%) were called active. Inconclusive results, whose numbers are uncertain, are shown with a selection of clear calls. Calls come from the whole dose curve; as a rule, active = well fitted activation curve with a large enough effect; inconclusive = small, poorly fitted or top-dose-only effect; inactive = no such curve, though single readings can be large or run the other way. Potencies beside an inconclusive call are fits to weak or partial responses and may not hold up.
# Assay: qHTS Assay for Compounds that Induce Erasure of Genomic Imprints;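 for activity change, positive = activation: 0% = negative control wells on the plate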
# Details: mouse ES Peg3-LacZ reporter, beta-gal luminescence, 40 h; activity change, positive = activation: at 10.9 µM (top of the series) unless noted
# How it was run: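 Readout: BetaGlo luminescence (5 min, room temp) for LacZ from the normally silent maternal Peg3 allele in female Peg3LacZ-Neo ES cells. Cells 300/well, 40 h, 37C, 5% CO2. Data normalized per plate to negative controls.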
# Potency is the fitted concentration of half-maximal effect; tags give direction and shape of the fitted curve.
Structure (SMILES),"activity change, positive = activation",Potency
NC(=O)CSc1nc2cc3c(cc2c(=O)n1CCCCCC(=O)NCc1ccc2c(c1)OCO2)OCO3,inconclusive: 51.8% [activator],–
CCOc1cc2c(cc1OCC)C(CC(=O)OC)N(C(=O)Nc1cc(OC)ccc1OC)CC2 (stereo not given),inconclusive: 30.6% [activator],–
Cc1ccc(NC(=O)CN2C(=O)C(c3ccc(C)cc3)=NC23CCCCCC3)cc1,inconclusive: 35.1% [activator],–
CCNc1ncc2nc(C)c(=O)n(CCC#N)c2n1,–,"inconclusive: 7.94 µM [activator, partial curve]"
Cc1c(CNC(C)CCc2ccccc2)c(C(=O)O)c(C)n1Cc1ccc(F)cc1 (stereo not given),inconclusive: 52.7% [activator],–
CC(=O)Nc1cccc(NC(=O)CSc2nccn2Cc2ccc3c(c2)OCO3)c1,inactive: -8.32%,–
COc1cc2c(CCNC(C)=O)c[nH]c2cc1Cl,–,"inconclusive: 5.01 µM [activator, single point]"
Cc1ccc(-c2cc3c(nn2)-c2ccccc2C3=O)cc1,inactive: -94.6% [at 60.7 µM],–
Cn1c(=O)c2c(nc(CN3CCc4ccccc4C3)n2Cc2cccc(Cl)c2)n(C)c1=O,–,"inconclusive: 3.16 µM [activator, single point]"
O=C(NC1CC(=O)N(c2ccc(F)cc2)C1)C1CCCC1 (stereo not given),inconclusive: 67.6% [activator],–
C=CCOC(=O)Nc1ccc(Cl)cc1NC(=O)OCC=C,inconclusive: 59% [activator] [at 60.7 µM],–
O=c1cnc2cnc(Nc3ccccc3)nc2n1Cc1cccs1,–,"inconclusive: 3.98 µM [activator, single point]"
CCc1ccc(NC(=O)CCc2c(C)nc3nc(-c4cc(OC)cc(OC)c4)nn3c2C)cc1,inconclusive: 30.5% [activator],–
Cc1nn2c(N3CCOCC3)c3c(nc2c1-c1ccccc1)CCCC3,–,"inconclusive: 6.31 µM [activator, single point]"
COc1cccc(CNc2nc3ccccc3c3nc(-c4cccc(C)c4)nn23)c1,inconclusive: 38.9% [activator],–
c1ccc(CN2COc3c(ccc4c5c(ccc34)CN(Cc3ccccc3)CO5)C2)cc1,–,"inconclusive: 3.16 µM [activator, single point]"
COc1ccccc1N1CCN(C(=O)Cn2ncc3ccsc3c2=O)CC1,inconclusive: 31.3% [activator],–
Cc1ccc2c(c1)c1c(c(=O)n(-c3cccc(Cl)c3)c(=O)n1CC(=O)NCCC1=CCCCC1)n2C,inactive: 26%,–
COc1ccc(CNC(=O)C(=O)Nc2c3c(nn2-c2ccccc2)CSC3)cc1,inactive: -12.9%,–
COc1cc(/C=C(\C#N)c2nc3ccccc3[nH]2)ccc1OCc1ccc(F)cc1,inactive: -21.3%,–
CC1=C(/C=C/C(C)=C/C=C/C(C)=C\C(=O)O)C(C)(C)CCC1,–,"inconclusive: 3.16 µM [activator, single point]"
Cc1cc(C(=O)Nc2ccccn2)no1,inactive: -74% [at 60.7 µM],–
CCOc1ccc(-c2c(C)nn3c(C)c(C(=O)NCCc4ccccc4)cnc23)cc1OCC,inactive: -11.6%,–
COc1ccc(C)cc1NC(=O)c1nnn(Cc2cccc(Br)c2)c1N,inactive: -8.74%,–

Structure (SMILES),"activity change, positive = activation",Potency
Cc1ccc(NC(=O)CCC(=O)N2Cc3ccccc3Oc3ncccc32)cc1Cl,inconclusive: 38.3% [activator],–
COc1ccc(-n2nc3ccc(NC(=O)c4cccc(OCCC(C)C)c4)cc3n2)cc1,inconclusive: 96.3% [activator],–
Cc1cc(-c2ccccc2)nnc1NCCN1CCOCC1,–,"inconclusive: 7.94 µM [activator, single point]"
Cc1ccc(-c2nnn(CC(=O)NCCc3ccc4c(c3)OCO4)n2)o1,–,"inconclusive: 3.98 µM [activator, single point]"
CCc1ccc(NC(=O)c2sc3nc(C)c(C(=O)Nc4ccc(C)cc4C)c(-c4ccco4)c3c2N)cc1,inactive: -10.5%,–
O=c1c2oc3ccccc3c2n(Cc2ccccc2)c(=O)n1Cc1ccco1,inconclusive: 32% [activator],–
CCn1nnc2cc(C(=O)Nc3ccc(C)cc3Br)ccc21,inconclusive: 53.1% [activator],–
C/C(=C\c1ccc(C(=O)O)cc1)c1ccc2c(c1)C(C)(C)CCC2(C)C,–,"inconclusive: 31.6 µM [activator, single point]"
CC1=C(C(=O)N2CCCCC2)C(c2cccc(Cl)c2)n2c(nc3ccccc32)N1 (stereo not given),inconclusive: 30% [activator],–
O=c1[nH]c(=O)n([C@H]2C[C@H](O)[C@@H](CO)O2)cc1Br,–,"inconclusive: 25.1 µM [activator, single point] and inconclusive: 5.01 µM [activator, full curve, poor fit]"
Cn1c(=O)c2c(ncn2CC(=O)N2CCN(c3ccccc3)CC2)n(C)c1=O,–,"inconclusive: 31.6 µM [activator, single point]"
CC1CCCCN1C(=O)CSc1c2c(nc3cc(Cl)ccc13)CCCC2 (stereo not given),inactive: -15.6%,–
COc1ncc2nc(-c3ccccc3)c(=O)n(CCC#N)c2n1,–,"inconclusive: 3.98 µM [activator, single point]"
O=C(Nc1cccc2nsnc12)C1CC(=O)N(c2ccccc2)C1 (stereo not given),–,"inconclusive: 15.8 µM [activator, partial curve]"
c1ccc(-c2nn3c(Cn4cnc5ccccc54)nnc3s2)cc1,–,"inconclusive: 3.16 µM [activator, single point]"
CCOC(=O)c1ccccc1NC(=O)c1cnc(N2CCOCC2)c2ccccc12,inconclusive: 60.6% [activator],–
CCN(C(=O)Cn1c(=O)n(Cc2ccccc2)c(=O)c2c1c1cc(OC)ccc1n2C)c1ccccc1,inconclusive: 35.3% [activator],–
COCCCn1c(CCC(=O)O)ccc1-c1ccc(F)cc1,–,"inconclusive: 3.98 µM [activator, full curve, poor fit]"
Cc1ccc(CNC(=O)c2cc3ccc4cccnc4c3[nH]2)cc1,inactive: 25.5%,–
Nc1nnc(N2CCc3ccccc32)s1,–,"inconclusive: 2 µM [activator, single point]"
COc1ccc(OC)c(S(=O)(=O)N(C)CC(=O)O)c1,–,"inconclusive: 6.31 µM [activator, single point]"
Clc1ccc(OCc2nn3c(-c4ccncc4)nnc3s2)cc1,–,"inconclusive: 15.8 µM [activator, partial curve]"
Cn1cc(-c2nc3cnc(Oc4ccccc4)nc3n(C)c2=O)c2ccccc21,–,"inconclusive: 3.16 µM [activator, single point]"
CC(C)CCCC(C)C1CCC2C3CC=C4CC(=O)CC[C@@]4(C)C3CC[C@@]12C (stereo not given in full),–,"inconclusive: 3.16 µM [activator, partial curve]"

Structure (SMILES),"activity change, positive = activation",Potency
COc1ccccc1CNC(=O)CCC1N=C2c3ccccc3N=C(SCc3ccc(C)cc3C)N2C1=O (stereo not given),inconclusive: 33.8% [activator],–
Nc1ccccc1C(=O)CC(N)C(=O)O (stereo not given),–,"inconclusive: 31.6 µM [activator, single point]"
O=C(CCn1c(=O)sc2ccccc21)NCc1cccs1,–,"inconclusive: 3.98 µM [activator, single point]"
CCC(Cc1ccccc1)NC(=O)CN1C(=O)COc2ccc(S(=O)(=O)N3CCCCCC3)cc21 (stereo not given),inconclusive: 72.1% [activator],–
COc1ccc2[nH]cc(CCNc3cc(-c4ccccc4Cl)ncn3)c2c1,–,"inconclusive: 0.0316 µM [activator, full curve]"
CCOc1ccc(NC(=O)C(=O)c2cc(C)n(-c3cc(C)cc(C)c3)c2C)cc1,inconclusive: 31.6% [activator],–
O=C(NCC1CC1)[C@@H]1C[C@H]1[C@@H](NP(=O)(c1ccccc1)c1ccccc1)c1ccccc1,inactive: -9.11% [at 60.7 µM],–
COc1ccc(CNC(=O)c2ccc(NC(=O)N3CC4CCCN4c4ccccc43)cc2)cc1 (stereo not given),inconclusive: 57.5% [activator],–
CCCn1ccc2c(OCC(=O)Nc3cc(C)ccc3C)cccc2c1=O,inactive: -12.3%,–
CN(C)CCCn1c2c3ccccc3ccc2c2oc(=O)c3ccccc3c21,–,"inconclusive: 5.01 µM [activator, single point]"
O=c1c2c3c(sc2nc2sc(C4CC4)nn12)CCCC3,–,"inconclusive: 12.6 µM [activator, single point]"
CCOc1ccccc1Nc1sc(C(=O)c2ccccc2)c(N)c1C(=O)Nc1ccccc1,inconclusive: 31.7% [activator],–
CCNc1ncc2nc(-c3cccs3)c(=O)n(CCc3ccccc3)c2n1,–,"inconclusive: 5.01 µM [activator, single point]"
Cc1oc2nc(SCC(=O)NC3CCCCC3)nc(N)c2c1C,–,"inconclusive: 5.01 µM [activator, single point]"
CN=c1oc2ccc(Cl)cc2cc1C(N)=O,inactive: -0.49% [at 60.7 µM],–
Cc1ccc(Cl)cc1N1CCN(C(=O)CCCn2c(=O)[nH]c3ccc(Br)cc3c2=O)CC1,inactive: -4.89%,–
COc1ccccc1-c1nc(Nc2ccncc2)c2ccccc2n1,–,"inconclusive: 2.51 µM [activator, full curve, poor fit]"
COC(=O)c1sc(N2C(=O)c3oc4ccccc4c(=O)c3C2c2ccc(O)cc2)nc1C (stereo not given),inconclusive: 100% [activator],–
COC(=O)c1cn(CCOc2ccccc2)c2ccccc12,inactive: -17.5% [at 60.7 µM],–
Cc1cc(C)cc(NC(=O)CNS(=O)(=O)c2ccc3nc(C)sc3c2)c1,inconclusive: 62.9% [activator],–
CN(C)Cc1cc(C(C)(C)C)cc(CN(C)C)c1O,–,"inconclusive: 0.1 µM [activator, single point]"
Cc1cccc(N2CC(c3nc4ccc(C)cc4[nH]3)CC2=O)c1 (stereo not given),inconclusive: 45.3% [activator],–
